Assays:
BMP9 = target: T1, BMP9 (UniProt Q9UK05 320-429); assay: Biacore SPR; protein captured by anti-Fc antibody, ligand injected
T1 construct: Ligand injected over the captured receptor protein
T1 sequence (looked up): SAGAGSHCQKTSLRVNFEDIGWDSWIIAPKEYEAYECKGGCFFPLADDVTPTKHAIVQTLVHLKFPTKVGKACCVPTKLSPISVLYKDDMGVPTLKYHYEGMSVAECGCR
Description: (§1) These protein complexes were independently captured in the system using an anti-Fc antibody. Ligands were injected and allowed to flow over the captured receptor protein. Results are summarized in the table below, in which ligand off-rates (kd) most indicative of effective ligand traps are denoted by bold text.

BMP10 = target: T2, BMP10 (UniProt O95393 317-424); assay: as above
T2 construct: Ligand injected over the captured receptor protein
T2 sequence (looked up): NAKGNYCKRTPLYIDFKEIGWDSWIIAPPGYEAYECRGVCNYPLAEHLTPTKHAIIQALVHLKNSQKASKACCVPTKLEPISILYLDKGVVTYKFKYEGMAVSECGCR
Description: as §1

B1: ALK1-Fc:Fc monomeric complex (Fc fusion)
chain: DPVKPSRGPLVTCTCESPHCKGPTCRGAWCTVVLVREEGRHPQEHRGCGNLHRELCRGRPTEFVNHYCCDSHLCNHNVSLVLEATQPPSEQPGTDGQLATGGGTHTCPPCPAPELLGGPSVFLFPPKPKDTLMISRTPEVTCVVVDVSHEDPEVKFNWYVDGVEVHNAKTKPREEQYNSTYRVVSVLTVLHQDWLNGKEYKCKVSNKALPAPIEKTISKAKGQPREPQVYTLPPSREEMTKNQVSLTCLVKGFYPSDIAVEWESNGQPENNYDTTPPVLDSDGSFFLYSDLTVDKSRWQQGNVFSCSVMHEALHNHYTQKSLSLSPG
Kd (BMP9): 0.21 nM | koff (BMP9): 0.0011 s⁻¹ | kon (BMP9): 5.1e+06 M⁻¹ s⁻¹ | Kd (BMP10): 0.069 nM | koff (BMP10): 0.00051 s⁻¹ | kon (BMP10): 7.5e+06 M⁻¹ s⁻¹

B2: ENG([…])-Fc:ALK1-Fc heterodimer (Fc fusion)
chain 1: ETVHCDLQPVGPERDEVTYTTSQVSKGCVAQAPNAILEVHVLFLEFPTGPSQLELTLQASKQNGTWPREVLLVLSVNSSVFLHLQALGIPLHLAYNSSLVTFQEPPGVNTTELPSFPKTQILEWAAERGPITSAAELNDPQSILLRLGQAQGSLSFCMLEASQDMGRTLEWRPRTPALVRGCHLEGVAGHKEAHILRVLPGHSAGPRTVTVKVELSCAPGDLDAVLILQGPPYVSWLIDANHNMQIWTTGEYSFKIFPEKNIRGFKLPDTPQGLLGEARMLNASIVASFVELPLASIVSLHASSCGGRLQTSPAPIQTTPPTGGGTHTCPPCPAPELLGGPSVFLFPPKPKDTLMISRTPEVTCVVVDVSHEDPEVKFNWYVDGVEVHNAKTKPREEQYNSTYRVVSVLTVLHQDWLNGKEYKCKVSNKALPAPIEKTISKAKGQPREPQVYTLPPSRKEMTKNQVSLTCLVKGFYPSDIAVEWESNGQPENNYKTTPPVLKSDGSFFLYSKLTVDKSRWQQGNVFSCSVMHEALHNHYTQKSLSLSPGK
chain 2: [in this place about 100 residues][in this place about 250 residues]
notes: also called ENG-Fc:ALK1-Fc heterodimer
Kd (BMP9): 0.035 nM | koff (BMP9): 0.00039 s⁻¹ | kon (BMP9): 1.1e+07 M⁻¹ s⁻¹ | Kd (BMP10): 0.033 nM | koff (BMP10): 0.00047 s⁻¹ | kon (BMP10): 1.4e+07 M⁻¹ s⁻¹
